Results published in publication PMC8141534 (The Journal of Biological Chemistry, 2021).
Ends that are not written are not given here.

Legend:
[1] = test system: Rho, S. enterica; type: biochemical, Salmonella enterica; settings: peptide 50 μM, Rho 50 nM, λtR1 RNA; SD of two to three measurements
[2] = test system: Rho, M.tb; type: biochemical, Mycobacterium tuberculosis; settings: peptide 50 μM, Rho 50 nM, poly(rC); SD of two to three measurements
[3] = test system: Rho, X. campestris; type: biochemical, Xanthomonas campestris; settings: peptide 50 μM, Rho 50 nM, poly(rC); SD of two to three measurements

Sequence | Fraction of ATP Hydrolysed (%) [1] [%] | Fraction of ATP Hydrolysed (%) [2] [%] | Fraction of ATP Hydrolysed (%) [3] [%]
MHHHHHHTPAQGMIFSVKVRTGITSVSVKAWLFWRMREDFQPDTD [peptide 16] | 8 ± 0.8 | 28 ± 1 | 17 ± 5
MHHHHHHTPAQFIFFRVKVRNWHTSVSVKAWLFWRMREDFQPDTD [peptide 33] | 11 ± 0.5 | 23 ± 1 | 14 ± 3
